Results published in PubChem BioAssay AID1347041 (National Center for Advancing Translational Sciences (NCATS), 2019).
“And” between values parts separate entries of the source, which are not always exact repeats. Equal values may be shown once. About 740 (0.15%) of roughly 480,000 compounds were called active. This list was built around the results that the source calls inconclusive (neither active nor inactive); the mix of calls is not that of the screen. Rule as the data show it: active = activity change below about -30%; inconclusive = mostly about -25% to -30%; inactive = weaker than that.

molecular target: L-lactate dehydrogenase A chain (Homo sapiens) (UniProt P00338); assay: qHTS assay for inhibitors of human lactate dehydrogenase; settings: purified LDHA, NADH/diaphorase-resazurin fluorescence; active compounds read low;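 also: values are at about 110 or 230 µM; plate controls were DMSO wells for no effect and wells without enzyme for full effect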
Summary of the method: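 Enzyme activity of human lactate dehydrogenase 5 (2 nM; 0.06 mM NADH, 0.2 mM pyruvate, 5 min, RT) is measured via a resazurin/diaphorase fluorescence readout of residual NADH.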

Structure (SMILES) | activity change
COc1ccc(NC(=O)COC(=O)c2cc(OC)c(OC)cc2NC(=O)c2ccco2)cc1OC | inactive: -3.66%
Cc1cc(=O)oc2cc(OCC(=O)N3CCN(C(=O)C4COc5ccccc5O4)CC3)ccc12 (stereo unspecified) | inconclusive: -27.4%
O=C(NCCCN1CCCC1=O)C1CCN(S(=O)(=O)N2CCOCC2)CC1 | inactive: -5.92%
N#Cc1cccnc1N1CCN(C(C(=O)O)c2c[nH]c3ccc(Cl)cc23)CC1 (stereo unspecified) | inactive: -2.71%
COC(=O)c1cn(NC(=O)Cc2ccc(Cl)cc2)c(=O)c2ccccc12 | inconclusive: -28.1%
CC(=O)NC1C(=O)N(CCN2CCOCC2)c2ccc(Cl)cc21 (stereo unspecified) | inactive: 9.93%
O=C(CN1CCCC1)N1CCN(S(=O)(=O)c2cccc(F)c2)CC1 | inactive: -9.52%
C/C(=C\C=C\c1ccco1)C(=O)c1ccc(Br)cc1 | inconclusive: -27.4%
C=CCc1cc(C)ccc1OCCn1ccnc1 | inconclusive: -26.5%
C(=C\c1ccccc1)/CN(C/C=C/c1ccccc1)CC1CCCO1 (stereo unspecified) | inactive: -2.85%
O=[N+]([O-])c1ccc2nonc2c1Nc1ccccc1Cl | inconclusive: -27.9%
Cc1cccc(NC(=O)CCl)c1C | inconclusive: -26.6%
O=C(O)/C=C/c1ccccc1F | inactive: 3.1%
Cc1cc(Br)ccc1OCCN1CCCC1 | inconclusive: -26.4%
Cc1[nH]c2ccccc2c1C(C(=O)O)N1CCN(Cc2cccc3ccccc23)CC1 (stereo unspecified) | inconclusive: -26.7%
CC1CCCC(C)N1C(=O)COC(=O)CNC(=O)c1ccccc1 (stereo unspecified) | inactive: -7.38%
O=C1CC(=O)N(Cc2ccco2)C(=S)N1 | active: -36.2%
N#Cc1ccc(F)c(COC(=O)c2ccccc2C(=O)c2ccc(Cl)cc2)c1 | inactive: 4.19%
c1cc2nc(C34CC5CC(CC(C5)C3)C4)[nH]c2cn1 | active: -32.6%
Cc1ccc(OCCOCCN2CCN(C)CC2)c([N+](=O)[O-])c1 | active: -46.3%
CC(C)c1ccc(NC(=S)NCc2ccc(F)cc2)cc1 | inconclusive: -26.2%
Cc1cccc(NC(=O)CCc2nc(C(C)(C)C)no2)n1 | inconclusive: -26.7%
CCCc1cc(C(=O)Nc2ccc(Br)cc2)no1 | inconclusive: -26.2%

Structure (SMILES) | activity change
CN(CC(=O)Nc1cccc(F)c1)CC(=O)Nc1cccc(S(=O)(=O)N2CCCCC2)c1 | inactive: -6.73%
O=C(O)/C=C/C(=O)c1ccc(Br)cc1 | inconclusive: -25.5%
CC(CCc1ccc(O)cc1)NCCC(c1ccccc1)c1ccccc1 (stereo unspecified) | inactive: -17%
O=C(c1cccs1)N1CCN(CCCc2ccccc2)CC1 | inconclusive: -26.7%
COC(=O)C(C)OC(=O)/C=C/c1ccc2ccccc2n1 (stereo unspecified) | inactive: 9.11%
O=C(CN1C(=O)S/C(=C\c2ccccc2)C1=O)NNC(=O)c1ccccc1O | inconclusive: -25.1%
CCOc1ccc(CNCc2cccs2)cc1OC | inactive: -0.487%
O=C(NCC(=O)N(c1ccccc1)C1(C(=O)NC2CCCCC2)CCCCC1)c1ccccc1 | inconclusive: -25.3%
COC(=O)c1[nH]c2cc(OC)ccc2c1NC(=O)CN1CCCC(C)(C)C1 | inconclusive: -25.2%
CSc1c[n+]2c(n1C)CCC2 | active: -34.2%
O=C(CC12CC3CC(CC(C3)C1)C2)Nc1ccc(-c2nc3ncccc3o2)cc1 | inconclusive: -25%
CCN(C(=O)CSc1nc2n[nH]c(C)c2c(=N)n1-c1ccc(Cl)c(C)c1)c1cccc(C)c1 | inactive: -2.86%
CCCCCCn1c(N2CCN(Cc3c(Cl)cccc3Cl)CC2)nc2c1c(=O)[nH]c(=O)n2C | inconclusive: -27.8%
COc1ccc(Cl)cc1NC(=O)CNCC(c1ccccc1)N(C)C (stereo unspecified) | inconclusive: -28.9%
O=C(Nc1ccccc1)C1CCN(S(=O)(=O)c2ccc3[nH]c4c(c3c2)CCCCC4)CC1 | inactive: -15.4%
CCCCNC(=O)CN1CCN(Cc2ccc3cc(OC)ccc3c2)CC1 | active: -33%
CC(C)(C)c1ccc(CNCCC(=O)O)cc1 | inactive: 3.76%
OC(COCc1ccco1)CN1CCN(c2ccccc2)CC1 (stereo unspecified) | inconclusive: -25.2%
O=C(CN1C(=O)S/C(=C\c2ccc(F)cc2)C1=O)NC1C=CS(=O)(=O)C1 (stereo unspecified) | inconclusive: -25.3%
CC1(C)CC(Nc2nc3ccccc3nc2NS(=O)(=O)c2ccc3c(c2)OCCO3)CC(C)(C)N1 | inactive: 4.09%
CCN1CCN(CCCOc2ccc(Cl)cc2Br)CC1 | inconclusive: -27.9%
COC(=O)c1cc2c(ccn2-c2ccc(F)cc2)n1CC(=O)C(C)(C)C | inactive: -11.3%
CCN(C(=O)CN1CCN(C)CC1)c1cccc2ccccc12 | active: -36%

Structure (SMILES) | activity change
CCOc1ccc(NC(=O)CSc2nccn2C)cc1 | inactive: -9.46%
CC(=O)c1c(C)[nH]c(C(=O)OCC(=O)NCCC(C)C)c1C | inconclusive: -28.4%
COc1cc(Cl)c(C)cc1NC(=O)CSc1nnc(CCC(=O)O)c(=O)[nH]1 | inconclusive: -26.2%
Cc1ccc(NC(=O)Cc2nnc(SCC(=O)c3ccc(C#N)cc3)n2C)cc1C | inactive: 1.74%
CCOC(=O)c1ccc2c(c1)N(C)C(=O)c1ccccc1S2 | inconclusive: -29.4%
O=C(CN1CCN(Cc2ccccc2)CC1)Nc1ccc(F)c(F)c1 | inconclusive: -26.9%
O=S(=O)(NCc1ccc(Cl)cc1)c1cnc[nH]1 | inactive: -5.18%
CC(C)Cn1c(Oc2ccc(Cl)cc2)nc2c1c(=O)n(C)c(=O)n2C | inconclusive: -27.6%
CCOc1ccc(S(=O)(=O)N(CC)CC)cc1NC(=O)C1CCN(c2ccc(C#N)cn2)CC1 | inactive: 10.5%
CCN(CC)CCNCC(=O)Nc1ccc(Oc2ccccc2)cc1 | inconclusive: -27.8%
CCOCCn1ccc2c(OCC(=O)Nc3cc(C)cc(C)c3)cccc2c1=O | inactive: 1.55%
Cc1ccc(CNc2nc3nc(C)c(CCC(=O)Nc4cccc5ccccc45)c(=O)n3[nH]2)cc1 | inconclusive: -27.6%
COc1ccc(CCNc2oc(COc3ccccc3)nc2C#N)cc1 | inactive: -5.62%
COc1ccc(C2=NC(C(F)(F)F)(C(F)(F)F)N=C(N3CCOCC3)O2)cc1 | inconclusive: -27.5%
CCOC(=O)c1c(C)sc2c1OC(N)=C(C#N)C21C(=O)N(Cc2cccc(F)c2)c2ccccc21 (stereo unspecified) | inconclusive: -25.3%
Cc1nn(-c2ccccc2)c(Cl)c1C(=O)OC(C)C(=O)NC(=O)NC1CCCCC1 (stereo unspecified) | inactive: 0.864%
O=C(NCc1ccc(F)cc1)c1ccccc1-c1ncc(-c2ccccc2)o1 | inconclusive: -29.9%
COc1ccc(C(=O)Nn2c(CC(C)C)nc3cc(Cl)ccc3c2=O)c(OC)c1 | inactive: -3.53%
CCc1nc2nc(C)c(NS(=O)(=O)c3ccc(Br)s3)c(=O)n2[nH]1 | inactive: -2.85%
Cc1c(CC(=O)NCC(=O)O)c(=O)oc2cc3oc4c(c3cc12)CCCC4 | inconclusive: -25.3%
O=C(C1=C(O)C(=O)N(CCc2ccccc2)C1c1cccnc1)c1ccco1 (stereo unspecified) | inactive: 1.38% and inactive: 0.0479%
CC(C)CNc1oc(-c2ccccc2F)nc1C#N | active: -36.4%
COc1cccc(-c2cc3c(-n4cccc4)ncnc3o2)c1 | inactive: -11.9%

Structure (SMILES) | activity change
COc1cccc(NC(=O)C(NCC2CCCCC2)c2ccccc2)c1 (stereo unspecified) | inconclusive: -28.1%
Cn1c[n+](C)cc1/C=N/O | inconclusive: -25.7%
O=C(O)c1ccc(N/N=C/c2ccnc3ccccc23)cc1 | active: -36.6%
CCN1C(=O)CSc2ccc(C(=O)NCCCN3CCOCC3)cc21 | inactive: -2.99%
Cc1ccc(C(=O)NNC(=O)C2CCN(S(=O)(=O)c3ccc(Cl)cc3)CC2)cc1 | inconclusive: -26.7%
CC1(C(=O)Nc2ccc3[nH]ncc3c2)CCN1C(=O)C/C=C/c1ccccc1 (stereo unspecified) | inactive: -2.91%
CN1C(=O)/C(=C/c2ccccc2F)Sc2ccc(C(=O)NCC3CCCO3)cc21 (stereo unspecified) | inconclusive: -26.1%
COc1ccc(NC(=O)C(NCC(C)C)c2ccccc2)cc1Cl (stereo unspecified) | inconclusive: -25.4%
Cc1cc(=O)n(C)c(=O)n1CCCCCCN1CCCC1 | inconclusive: -27.9%
CCOc1ccccc1NC(=O)c1ncoc1-c1ccc(C)o1 | inconclusive: -29.9%
O=C(CCc1ncc(-c2ccccc2Cl)o1)NCc1ccc(Cl)cc1Cl | inconclusive: -26.8%
C=CCc1cc(C)ccc1OCCOCCN1CCN(C)CC1 | inconclusive: -28.2%
CCOc1ccc(NC(=O)c2ccc3c(c2)S(=O)(=O)N=C(C)N3CC(C)C)cc1 | inconclusive: -28.7%
CCN1CCN(CC(=O)Nc2cc(S(=O)(=O)N3CCCCC3)ccc2Cl)CC1 | inconclusive: -29.5%
Nc1c(C(=O)Nc2ccc3c(c2)OCCO3)nnn1Cc1ccc(Br)cc1 | inactive: -2.06%
CCN(C(=O)Cn1nc(-c2ccc(Br)cc2)ccc1=O)c1cccc(C)c1 | inactive: 1.7%
CC(=O)Nc1ccc(CCNC(=O)c2ccc3ccccc3c2O)cc1 | inactive: 4.76%
Cc1ccc(C(=O)O)cc1NC(=S)NC(=O)c1ccc(-c2ccccc2)cc1 | inconclusive: -27.9%
FC(F)Oc1cc(Cl)ccc1C1CC(c2ccc(Br)cc2)n2c(nc3ccccc32)N1 (stereo unspecified) | inconclusive: -25.1%
CCOc1ccc2nc(NCCNC(=O)C(C)C)c(C)cc2c1 | inactive: 0.928%
CC(NC(=O)NC1CCCCC1)C(c1cccs1)N1CCN(Cc2ccccc2)CC1 (stereo unspecified) | inactive: -0.574%
O=C(Nc1cccc(S(=O)(=O)Nc2ccc(Cl)cc2)c1)c1ccccn1 | inconclusive: -29.7%
